The supplement of paper PMC2702839
Structures can show the parent of a compound that is named as a salt. This is one part of the list.

Each compound was assayed on Schistosoma mansoni schistosomula (assay: phenotypic hit in primary schistosomula screen (any phenotype vs DMSO control) (binary (1 = hit, 0 = no phenotype)); higher = active (phenotype induced)). Details: 1 µM; time (d): 7.
`CC(=O)OC1CN2CCC1CC2` (centres undefined) [aceclidine hydrochloride] was tested, and the phenotypic hit was inactive: 0. In the case of `CC(CCc1ccccc1)NC(C)C(O)c1ccc(O)cc1` (centres undefined) [Nylidrin hydrochloride], the phenotypic hit is reported as inactive: 0. In the case of `COP(=S)(OC)Oc1ccc([N+](=O)[O-])cc1` [methyl parathione], the phenotypic hit is reported as inactive: 0. `C=C(C)c1cc2cc(C(C)=O)c(O)cc2o1` [euparin] was tested, and the phenotypic hit was inactive: 0. With `c1ccc2nc(N3CCNCC3)ccc2c1` [Quipazine dimaleate] the phenotypic hit was inactive: 0. `CC(C)OC(=O)Nc1cccc(Cl)c1` [chlorpropham] was tested, and the phenotypic hit was inactive: 0. With `CN1C[C@H](C(=O)N[C@]2(C)O[C@@]3(O)[C@@H]4CCCN4C(=O)[C@H](Cc4ccccc4)N3C2=O)C[C@@H]2c3cccc4[nH]cc(c34)C[C@H]21` [Dihydroergotamine methanesulfonate] the phenotypic hit was inactive: 0. With `COc1ccc(Cc2nccc3cc(OC)c(OC)cc23)cc1OC` [Papaverine hydrochloride] the phenotypic hit was inactive: 0. In the case of `COc1cc2c(c(OC)c1OC)-c1ccc(=O)c(O)cc1[C@@H](NC(C)=O)CC2` [colchiceine], the phenotypic hit is reported as inactive: 0. `CCC1(CC)C(=O)C=CNC1=O` [pyrithyldione] was tested, and the phenotypic hit was inactive: 0. `COc1cc2c(cc1OC)[C@@]13CCN4CC5=CCO[C@H]6CC(=O)N2[C@H]1[C@H]6[C@H]5C[C@H]43` [brucine] was tested, and the phenotypic hit was inactive: 0. `CCOCN(C(=O)CCl)c1c(C)cccc1CC` [acetochlor] was tested, and the phenotypic hit was inactive: 0. With `COP(=O)(OC)OC(Br)C(Cl)(Cl)Br` (centres undefined) [naled] the phenotypic hit was inactive: 0. `CC(C)(C)NCC(O)c1cc(Cl)c(N)c(Cl)c1` (centres undefined) [clenbuterol hydrochloride] was tested, and the phenotypic hit was inactive: 0. With `C=C(C)[C@H]1Cc2c(ccc3c2O[C@@H]2COc4cc(OC)c(OC)cc4[C@@H]2C3=O)O1` [rotenone] the phenotypic hit was inactive: 0. For `COC(=O)C1=CCCN(C)C1` [Arecoline hydrobromide], the phenotypic hit was active: 1. `NCC(CC(=O)O)c1ccc(Cl)s1` (centres undefined) [4-amino-3- (5-chlorothien-2-yl)butanoic acid] was tested, and the phenotypic hit was inactive: 0. `COc1cc2c(cc1OC)[C@H](C)NCC2` [salsolidine] was tested, and the phenotypic hit was inactive: 0. With `CC1=C2[C@H]3OC(=O)[C@@H](C)[C@@H]3CC[C@@]2(C)C=CC1=O` [santonin] the phenotypic hit was inactive: 0. `OCC(O)Cc1ccc2c(c1)OCO2` (centres undefined) [safrolglycol] was tested, and the phenotypic hit was inactive: 0. In the case of `CCC(N)C(O)c1ccc(O)c(O)c1` (centres undefined) [ethylnorepinephrine hydrochloride], the phenotypic hit is reported as inactive: 0. With `CC(=O)O[C@H]1C[C@H](O[C@H]2[C@@H](O)C[C@H](O[C@H]3[C@@H](O)C[C@H](O[C@H]4CC[C@@]5(C)[C@H](CC[C@@H]6[C@@H]5C[C@@H](O)[C@]5(C)[C@@H](C7=CC(=O)OC7)CC[C@]65O)C4)O[C@@H]3C)O[C@@H]2C)O[C@H](C)[C@H]1O[C@@H]1O[C@H](CO)[C@@H](O)[C@H](O)[C@H]1O` [lanatoside c] the phenotypic hit was inactive: 0. With `O=C1C=C2C(=CCOC2O)O1` (centres undefined) [patulin] the phenotypic hit was active: 1. With `COc1ccc(CCN2CCC(Nc3nc4ccccc4n3Cc3ccc(F)cc3)CC2)cc1` [astemizole] the phenotypic hit was inactive: 0. `O=C1CCCN1CC#CCN1CCCC1` [oxotremorine] was tested, and the phenotypic hit was inactive: 0. In the case of `CO[C@@H]1C[C@@H](C[C@H]2CC[C@H](C)[C@H]([C@@H](C)C(=O)O)O2)O[C@]2(O[C@](C)([C@H]3CC[C@@](C)([C@@H]4O[C@@H]([C@H]5O[C@@](O)(CO)[C@H](C)C[C@@H]5C)C[C@@H]4C)O3)C[C@H]2C)[C@@H]1C` [nigericin sodium], the phenotypic hit is reported as active: 1. In the case of `COC1C(O)C(O[C@H]2CC[C@]3(C=O)C4C(CC[C@]3(O)C2)[C@@]2(O)CC[C@H](C3=CC(=O)OC3)[C@@]2(C)C[C@H]4OC(C)=O)OC(C)C1OC(C)=O` (some centres undefined) [sarmentoside b], the phenotypic hit is reported as inactive: 0. For `CCOP(=S)(OCC)SCCSCC` [disulfoton], the phenotypic hit was inactive: 0. For `c1cncc(C2=NCCC2)c1` [myosmine], the phenotypic hit was inactive: 0. `O=[N+]([O-])c1cc([As](=O)(O)O)ccc1O` [roxarsone] was tested, and the phenotypic hit was inactive: 0. In the case of `CC(=O)C1CCC2C3CCC4C[C@H](O)CCC4(C)C3C[C@H](O)C12C` (stereo partly drawn) [dihydroxy (3alpha,12alpha)pregnan-20-one], the phenotypic hit is reported as inactive: 0. `CCc1cccc(CC)c1N(COC)C(=O)CCl` [alachlor] was tested, and the phenotypic hit was inactive: 0. In the case of `C[C@]12C=CC(=O)C=C1CC[C@@H]1[C@@H]2CC[C@]2(C)C(=O)CC[C@@H]12` [androsta-1,4-dien-3,17-dione], the phenotypic hit is reported as inactive: 0. `CCN1C[C@]2(COC)[C@H](O)C[C@H](OC)[C@@]34[C@@H]5C[C@@]6(O)[C@H](OC(=O)c7ccccc7)[C@@H]5[C@@](OC(C)=O)([C@@H]([C@H](OC)[C@H]23)[C@@H]14)[C@@H](O)[C@@H]6OC` [aconitine] was tested, and the phenotypic hit was inactive: 0. `CC(=O)CC1CCCCN1` (centres undefined) [pelletierine hydrochloride] was tested, and the phenotypic hit was inactive: 0. For `CC[C@@]1(O)C[C@H](O[C@H]2C[C@H](N(C)C)[C@H](O)[C@H](C)O2)c2c(cc3c(c2O)C(=O)c2c(O)ccc(O)c2C3=O)[C@H]1C(=O)OC` [pyrromycin], the phenotypic hit was active: 1. In the case of `NCCc1ccc(O)cc1` [4-Hydroxyphenethylamine hydrochloride], the phenotypic hit is reported as inactive: 0. With `C[C@]12CC[C@H](O)C[C@@H]1CC[C@@H]1[C@@H]2CC[C@]2(C)C(=O)CC[C@@H]12` [epiandrosterone] the phenotypic hit was inactive: 0. With `C[N+]1(C)[C@@H]2C[C@@H](OC(=O)[C@H](CO)c3ccccc3)C[C@H]1[C@@H]1O[C@@H]12` [methscopolamine bromide] the phenotypic hit was inactive: 0. With `CCn1cc(C(=O)O)c(=O)c2cc3c(cc21)OCO3` [oxolinic acid] the phenotypic hit was inactive: 0. `CO[C@H]1C[C@H](O[C@H]2CC[C@]3(C=O)[C@H]4CC[C@]5(C)[C@@H](C6=CC(=O)OC6)CC[C@]5(O)[C@@H]4CC[C@]3(O)C2)O[C@H](C)[C@H]1O` [cymarin] was tested, and the phenotypic hit was inactive: 0. In the case of `C[C@@H](N)[C@@H](O)c1ccccc1` [1r,2s-phenylpropylamine], the phenotypic hit is reported as inactive: 0. `COc1cc2c(cc1OC)[C@@H]1C(=O)c3ccc(O)c(CC=C(C)C)c3O[C@@H]1CO2` [rotenonic acid] was tested, and the phenotypic hit was inactive: 0. With `C[C@@H]1O[C@@H](O[C@H]2C[C@@H](O)[C@]3(CO)[C@H]4[C@H](O)C[C@]5(C)[C@@H](C6=CC(=O)OC6)CC[C@]5(O)[C@@H]4CC[C@]3(O)C2)[C@H](O)[C@H](O)[C@H]1O` [ouabain] the phenotypic hit was inactive: 0. With `COc1ccc2c3c([nH]c2c1)C(C)=NCC3` [harmaline] the phenotypic hit was inactive: 0. For `CC1(C)C2C[C@@H](O)[C@]3(C)C(CC[C@@]4(C)[C@H](c5ccoc5)OC(=O)[C@H]5O[C@]543)[C@@]2(C)[C@@H](O)C[C@H]1O` (some centres undefined) [tridesacetoxykhivorin], the phenotypic hit was inactive: 0. `[N-]=[N+]=CC(=O)OC[C@H](N)C(=O)O` [azaserine] was tested, and the phenotypic hit was inactive: 0. For `NCC(O)c1ccc(O)cc1` (racemic) [(±)-Octopamine hydrochloride], the phenotypic hit was inactive: 0. `C=C1[C@@H](C)[C@H]2[C@H](Cc3ccccc3)NC(=O)[C@]23OC(=O)/C=C/[C@H](O)CCC[C@@H](C)C/C=C/[C@H]3[C@@H]1O` [cytochalasin b] was tested, and the phenotypic hit was inactive: 0. For `ClC1=C(Cl)C2(Cl)C3C4C=CC(C4)C3C1(Cl)C2(Cl)Cl` (centres undefined) [aldrin], the phenotypic hit was inactive: 0. For `COC(=O)COc1cc(Cl)c(Cl)cc1Cl` [2,4,5-trichlorophenoxyacetic acid, methyl ester], the phenotypic hit was inactive: 0. For `C[C@]12CCC3C(CC[C@H]4C[C@H](O)CC[C@]34C)C1CC[C@@H]2O` (some centres undefined) [epiandrostanediol], the phenotypic hit was inactive: 0. With `C[C@@H](CO)NC(=O)[C@@H]1C=C2c3cccc4[nH]cc(c34)C[C@H]2N(C)C1` [ergonovine maleate] the phenotypic hit was active: 1. In the case of `Clc1ccc(C(OCCN2CCCCC2)c2ccccc2)cc1` (centres undefined) [cloperastine hydrochloride], the phenotypic hit is reported as inactive: 0. In the case of `CCCSP(=O)(OCC)SCCC` [ethoprop], the phenotypic hit is reported as inactive: 0. `NCCc1c[nH]c2ccccc12` [Tryptamine hydrochloride] was tested, and the phenotypic hit was inactive: 0. For `C[C@]12CC[C@H](O)C[C@H]1CC[C@@H]1[C@@H]2C[C@@H](O)[C@]2(C)[C@@H](C3=CC(=O)OC3)CC[C@]12O` [digoxigenin], the phenotypic hit was inactive: 0. For `Cc1cccc(C)c1NC1=NCCCS1` [Xylazine hydrochloride], the phenotypic hit was active: 1. For `C[C@]12CC[C@H](Cl)C[C@@H]1CC[C@@H]1[C@@H]2CC[C@]2(C)C(=O)CC[C@@H]12` [3beta-chloroandrostanone], the phenotypic hit was inactive: 0. In the case of `C[C@]12CCC(=O)C=C1CCc1ccc(O)cc12` [12-hydroxy-4,4-bisnor-4,8,11,13-podocarpatetraen-3-one], the phenotypic hit is reported as inactive: 0. In the case of `C=C1[C@@H]2CCC3[C@@](CC[C@@H]4[C@H](C(=O)O)C[C@@H](O[C@@H]5O[C@H](CO)[C@@H](OS(=O)(=O)O)[C@H](OS(=O)(=O)O)[C@H]5OC(=O)CC(C)C)C[C@@]34C)(C2)[C@@H]1O` (some centres undefined) [atractyloside potassium], the phenotypic hit is reported as inactive: 0. In the case of `CC(=O)OCC1=C(C(=O)O)N2C(=O)[C@@H](NC(=O)CCC[C@@H](N)C(=O)O)[C@H]2SC1` [cephalosporin c sodium], the phenotypic hit is reported as inactive: 0. `COc1c2c(cc3c1OCO3)CC[N+](C)=C2` [cotarnine chloride] was tested, and the phenotypic hit was inactive: 0. `Cn1c(=O)c2c(ncn2CCCl)n(C)c1=O` [7-(beta-Chloroethyl)theophylline] was tested, and the phenotypic hit was inactive: 0.
